Laboratory results published in ChEMBL document CHEMBL3826904, “Ionic liquid-promoted multicomponent synthesis of fused tetrazolo[1,5-a]pyrimidines as α-glucosidase inhibitors” (Bioorg Med Chem Lett, 2016).

Columns and labels:
[1] = compound: COc1ccc(-c2ccnc3nnnn23)cc1; test: (§1) Mixed-uncompetitive type inhibition of yeast alpha-glucosidase MAL12 at 25 uM using 4-nitrophenyl-alpha-D-glucopyranoside as substrate assessed as substrate Km preincubated for 30 mins followed by substrate addition measured after 10 mins by Lineweaver-Burk plot analysis (reference value: 0.478 uM); settings: Saccharomyces cerevisiae
[2] = compound: Cc1ccc(-c2ccnc3nnnn23)cc1; test: as §1; settings: Saccharomyces cerevisiae

B1: Alpha-glucosidase MAL12 (Saccharomyces cerevisiae S288c), P53341 (protein)
chain: MTISDHPETEPKWWKEATIYQIYPASFKDSNNDGWGDLKGITSKLQYIKDLGVDAIWVCPFYDSPQQDMGYDISNYEKVWPTYGTNEDCFELIDKTHKLGMKFITDLVINHCSTEHEWFKESRSSKTNPKRDWFFWRPPKGYDAEGKPIPPNNWKSFFGGSAWTFDETTNEFYLRLFASRQVDLNWENEDCRRAIFESAVGFWLDHGVDGFRIDTAGLYSKRPGLPDSPIFDKTSKLQHPNWGSHNGPRIHEYHQELHRFMKNRVKDGREIMTVGEVAHGSDNALYTSAARYEVSEVFSFTHVEVGTSPFFRYNIVPFTLKQWKEAIASNFLFINGTDSWATTYIENHDQARSITRFADDSPKYRKISGKLLTLLECSLTGTLYVYQGQEIGQINFKEWPIEKYEDVDVKNNYEIIKKSFGKNSKEMKDFFKGIALLSRDHSRTPMPWTKDKPNAGFTGPDVKPWFLLNESFEQGINVEQESRDDDSVLNFWKRALQARKKYKELMIYGYDFQFIDLDSDQIFSFTKEYEDKTLFAALNFSGEEIEFSLPREGASLSFILGNYDDTDVSSRVLKPWEGRIYLVK
Km [1]: 1.15 µM
Km [2]: 3.76 µM
